Source: the BET-seq Pho4 binding data (Le et al. 2018)
Some of the results follow. Values were computed here from the reads of four pooled replicates and scatter widely.

Biological target: T1, Pho4 (S. cerevisiae) (UniProt P07270)
T1 sequence: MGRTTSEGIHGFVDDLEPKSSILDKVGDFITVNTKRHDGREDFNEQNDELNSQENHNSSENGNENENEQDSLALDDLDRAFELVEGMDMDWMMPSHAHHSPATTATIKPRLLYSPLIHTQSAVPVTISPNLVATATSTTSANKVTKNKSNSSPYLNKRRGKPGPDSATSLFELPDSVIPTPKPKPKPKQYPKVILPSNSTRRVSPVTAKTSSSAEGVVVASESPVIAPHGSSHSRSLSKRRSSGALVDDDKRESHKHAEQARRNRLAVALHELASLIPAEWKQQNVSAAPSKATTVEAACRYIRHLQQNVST
Assay: relative binding free energy (BET-seq); higher = weaker binding
Conditions: reference: library average

Row | Sequence | relative binding free energy
1 | CGTTGCACGTGCTGGG | -0.19 kcal/mol
2 | TTGTTCACGTGCGGAT | 0.22 kcal/mol
3 | GTCCGCACGTGTTGTG | -0.07 kcal/mol
4 | AAGTTCACGTGTGTCT | 0.32 kcal/mol
5 | TTCATCACGTGGGAGT | 0.06 kcal/mol
6 | ATAGACACGTGCGGGG | -0.1 kcal/mol
7 | CGGTACACGTGGTGGT | -0.06 kcal/mol
8 | CATTACACGTGGGAGT | 0.07 kcal/mol
9 | CTAGTCACGTGTTGGC | 0.24 kcal/mol
10 | TGTCTCACGTGCAGGT | 0.2 kcal/mol
11 | GAGTGCACGTGGGTGT | -0.12 kcal/mol
12 | AAGGCCACGTGGTTTG | -0.1 kcal/mol
13 | GGTCACACGTGAGGTT | 0.35 kcal/mol
14 | TTGCTCACGTGTGGTA | 0.22 kcal/mol
15 | GTCAGCACGTGTGGGG | 0.04 kcal/mol
16 | ATGAGCACGTGCGGGC | -0.08 kcal/mol
17 | TGGAGCACGTGCAGTT | -0.12 kcal/mol
18 | GCCGGCACGTGGTGGG | -0.07 kcal/mol
19 | ATGGTCACGTGTGAGA | 0.19 kcal/mol
20 | AGATACACGTGTGTTT | 0.05 kcal/mol
21 | TCTTGCACGTGTGAGT | 0.08 kcal/mol
22 | ATTTTCACGTGGCGTT | 0 kcal/mol
23 | TGCCTCACGTGGGTGT | 0.2 kcal/mol

Row | Sequence | relative binding free energy
24 | GGGTGCACGTGGATGT | 0.08 kcal/mol
25 | TCAGGCACGTGGGTGC | -0.26 kcal/mol
26 | GGTTCCACGTGATGAG | 0.25 kcal/mol
27 | GGGCTCACGTGGTTGA | 0.23 kcal/mol
28 | AGTGTCACGTGAGGAT | 0.16 kcal/mol
29 | TTTGGCACGTGATGAT | 0.05 kcal/mol
30 | AGTTGCACGTGATTTG | 0.28 kcal/mol
31 | TAGGGCACGTGTACGG | -0.27 kcal/mol
32 | TGGTACACGTGATCGT | 0.04 kcal/mol
33 | TTTAACACGTGCTGAT | -0.05 kcal/mol
34 | AGTGTCACGTGGTTAC | -0.18 kcal/mol
35 | GCGAGCACGTGTATGG | -0.12 kcal/mol
36 | GTTGGCACGTGATCTT | -0.04 kcal/mol
37 | TTTAGCACGTGATAGT | 0.1 kcal/mol
38 | ATTTGCACGTGTTTCG | 0.03 kcal/mol
39 | GTGATCACGTGTTTTG | 0.13 kcal/mol
40 | GTGGTCACGTGAAGGC | 0.21 kcal/mol
41 | TAACTCACGTGTGAGT | 0.34 kcal/mol
42 | CTTGGCACGTGCTTAT | -0.05 kcal/mol
43 | TTATGCACGTGCGTGT | -0.1 kcal/mol
44 | GAGGACACGTGGGCGG | -0.14 kcal/mol
45 | TGCGTCACGTGGCGTG | 0.06 kcal/mol
46 | GAAATCACGTGGGGTC | 0.18 kcal/mol

Row | Sequence | relative binding free energy
47 | ATAGTCACGTGGTCGA | -0.09 kcal/mol
48 | TCTGGCACGTGGTGTA | -0.22 kcal/mol
49 | CTATGCACGTGGATTT | 0.03 kcal/mol
50 | GCGGTCACGTGCGTTG | 0.09 kcal/mol
51 | TTGAACACGTGGATTC | 0.18 kcal/mol
52 | TGCTGCACGTGGTTAA | -0.13 kcal/mol
53 | ATTGTCACGTGACAGA | 0.26 kcal/mol
54 | GTTGACACGTGGATCT | 0.25 kcal/mol
55 | TATGTCACGTGGTATG | 0 kcal/mol
56 | GGGAGCACGTGGTCTG | -0.15 kcal/mol
57 | GCGGACACGTGAAGGT | 0.37 kcal/mol
58 | CTTGGCACGTGTACGG | -0.01 kcal/mol
59 | GGCGGCACGTGTGTGA | 0.03 kcal/mol
60 | TTAGGCACGTGTATTT | 0.07 kcal/mol
61 | TGCTGCACGTGTACGT | -0.01 kcal/mol
62 | AGGGACACGTGAGGTT | 0.28 kcal/mol
63 | TTGTGCACGTGTAGCA | 0.02 kcal/mol
64 | CATTACACGTGGTGAG | 0.22 kcal/mol
65 | GGGGACACGTGTGACG | 0.11 kcal/mol
66 | TTGGGCACGTGGACAT | -0.23 kcal/mol
67 | TTGGTCACGTGCTCTT | 0 kcal/mol
68 | GTTTACACGTGGGTAG | 0.05 kcal/mol
69 | TGGGGCACGTGTCGCA | -0.08 kcal/mol

Row | Sequence | relative binding free energy
70 | AGGTGCACGTGAATGC | 0.06 kcal/mol
71 | ACTATCACGTGGAGTG | 0.13 kcal/mol
72 | GTGTACACGTGTCGGC | 0.16 kcal/mol
73 | CGGGACACGTGTAAGT | 0.1 kcal/mol
74 | GGTTACACGTGGAGGG | 0.12 kcal/mol
75 | GTTATCACGTGGTAAC | 0.28 kcal/mol
76 | GGGTTCACGTGTATGA | 0.37 kcal/mol
77 | TTGTTCACGTGTTGAG | 0.26 kcal/mol
78 | ATTAACACGTGGGATT | 0.01 kcal/mol
79 | ATCTTCACGTGTATTG | 0.11 kcal/mol
80 | GTTTCCACGTGAAGGG | 0.38 kcal/mol
81 | TGTCACACGTGTTATA | 0.07 kcal/mol
82 | TAGGGCACGTGAATGG | 0.2 kcal/mol
83 | TGGATCACGTGATGGC | 0.14 kcal/mol
84 | TAGCGCACGTGTTTGG | -0.07 kcal/mol
85 | ACATGCACGTGTGGGA | 0.06 kcal/mol
86 | AGTTGCACGTGATGGC | 0.27 kcal/mol
87 | CTTGACACGTGAGGCT | 0.28 kcal/mol
88 | GGTTTCACGTGACAGG | 0.28 kcal/mol
89 | GTTGACACGTGTAGAG | 0.19 kcal/mol
90 | CTTTTCACGTGTTTGC | 0.23 kcal/mol
91 | CTGGGCACGTGAAAAT | 0.28 kcal/mol
92 | TTGTACACGTGTGATC | 0.21 kcal/mol

Row | Sequence | relative binding free energy
93 | TAGGACACGTGATATT | 0.05 kcal/mol
94 | GGAGCCACGTGAGAGG | 0.19 kcal/mol
95 | TTGAGCACGTGTGTGC | -0.02 kcal/mol
96 | TAATGCACGTGTGATG | 0.05 kcal/mol
97 | TTTAACACGTGAGGCT | 0.41 kcal/mol
98 | CGTGGCACGTGTGGAA | -0.02 kcal/mol
99 | GTTATCACGTGGTGTC | 0.09 kcal/mol
100 | AGCGGCACGTGTGGAT | -0.12 kcal/mol
101 | TGTTTCACGTGTTAAT | 0.24 kcal/mol
102 | GACGACACGTGTTTGG | 0.16 kcal/mol
103 | AGTCACACGTGAGGTT | 0.23 kcal/mol
104 | AGATCCACGTGGTGGT | -0.03 kcal/mol
105 | GGGGCCACGTGGCTCG | 0.02 kcal/mol
106 | GTTTACACGTGTTCGT | 0.07 kcal/mol
107 | TGGATCACGTGTCGTA | 0.16 kcal/mol
108 | TGTGGCACGTGACGTG | 0 kcal/mol
109 | AGCTTCACGTGTATTT | 0.18 kcal/mol
110 | GGCATCACGTGCAGGG | 0.22 kcal/mol
111 | TGGAGCACGTGTGTGA | -0.02 kcal/mol
112 | TCAGGCACGTGAGTAG | 0.09 kcal/mol
113 | GAGTTCACGTGGTTGT | 0.28 kcal/mol
114 | TGGTACACGTGTGGCA | 0.18 kcal/mol
115 | AGATGCACGTGGGGTT | -0.11 kcal/mol
